This is an account of results in the supplement of paper PMC10723795.

The test concerns RPE1. Kind of test: nucleolar normality score relative to DMSO (fraction of DMSO control); RPE1 is a non-cancer human cell line; higher = more normal nucleoli (less nucleolar stress). Conditions: 24 h.

Where a name gives a salt, the structure may show the parent alone. Some of the results follow.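 Rule for the calls: active = more than 2 SD below the DMSO mean: under 0.85 at 10 µM or 0.885 at 1 µM; inactive = the rest.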 Many values rest on one well or one pass, so single values are uncertain. Where a SMILES comes first, the peptide text is derived from it. Bridges are numbered along the chain shown (N, C = ends). [ ]: non-standard residue; d: D form. Mpa = O=C(O)CCS
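Note: fixed cells immunolabelled for nucleolin and UBF, 40 image fields per well in 384-well plates, per-cell score = nucleolin nucleolar/nucleoplasm intensity ratio divided by the matching UBF ratio.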

Consider `C=C(C)[C@@H]1CC[C@]2(C(=O)O)CC[C@]3(C)[C@H](CC[C@@H]4[C@@]5(C)CCC(=O)C(C)(C)[C@@H]5CC[C@]43C)[C@@H]12` [Betulonic acid], for which the nucleolar normality score is, setting by setting: (1 µM) inactive: 1.03; (10 µM) inactive: 0.872.

As for `Nc1ccn([C@@H]2O[C@H](CO)[C@@H](O)C2(F)F)c(=O)n1` [Gemcitabine HCl], the nucleolar normality score reads like this: (1 µM) active: 0.486; (10 µM) inactive: 1.07.

For the compound `Fc1ccc(Cl)cc1-c1nc(Nc2ccncc2)c2nccnc2n1`, the nucleolar normality score is, setting by setting: (1 µM) inactive: 0.936; (10 µM) inactive: 1.05.

Take `CO[C@H]1C[C@@H]2CC[C@@H](C)[C@@](O)(O2)C(=O)C(=O)N2CCCC[C@H]2C(=O)O[C@H]([C@H](C)C[C@@H]2CC[C@@H](OCCO)[C@H](OC)C2)CC(=O)[C@H](C)/C=C(\C)[C@@H](O)[C@@H](OC)C(=O)[C@H](C)C[C@H](C)/C=C/C=C/C=C/1C` [Everolimus (RAD001)]: the nucleolar normality score by setting is: (1 µM) active: 0.878; (10 µM) inactive: 0.877.

On to `COc1cc2c(cc1OCCCN1CCCC1)N=C(N)C21CCC1`, for which the nucleolar normality score by setting is: (1 µM) inactive: 0.953; (10 µM) inactive: 1.05.

Turning to `CN1c2ccccc2C(=O)Nc2cnc(Nc3ccc(N4CCC(O)CC4)cc3)nc21`, the nucleolar normality score is, setting by setting: (1 µM) inactive: 0.933; (10 µM) inactive: 1.05.

Take `O=C(O)CCCCC(CCSCc1ccccc1)SCc1ccccc1` (centres undefined): the nucleolar normality score (1 µM) is inactive: 0.999 and the nucleolar normality score (10 µM) was inactive: 0.895.

`CC1(C)CC[C@]2(C(=O)O)CC[C@]3(C)C(=CC[C@@H]4[C@@]5(C)CC[C@H](O)C(C)(C)[C@@H]5CC[C@]43C)[C@@H]2C1` [Oleanolic Acid]: the nucleolar normality score was inactive: 1.03 (1 µM) and inactive: 0.887 (10 µM).

`CC(C)(C)c1nc(-c2cccc(NS(=O)(=O)c3c(F)cccc3F)c2F)c(-c2ccnc(N)n2)s1`: the nucleolar normality score (1 µM) was active: 0.683 and the nucleolar normality score (10 µM) is active: 0.601.

In the case of `CC(C)(C)c1nc(-c2cccc(NS(=O)(=O)c3c(F)cccc3F)c2F)c(-c2ccnc(N)n2)s1` [Dabrafenib Mesylate], the nucleolar normality score runs as follows: (1 µM) inactive: 1.02; (10 µM) inactive: 1.08.

`Cc1cc(Nc2cc(N)ncn2)c(=O)n2c1C(=O)NC21CCCCC1`: the nucleolar normality score was inactive: 0.958 (1 µM) and inactive: 1.02 (10 µM).

In the case of `O=C(O)C1=CO[C@@H](O[C@@H]2O[C@H](CO)[C@@H](O)[C@H](O)[C@H]2O)[C@@H]2C(CO)=CC[C@H]12` [Geniposidic acid], the nucleolar normality score (1 µM) is inactive: 1.06 and the nucleolar normality score (10 µM) is inactive: 0.864.

For `Cc1ccc(Nc2ncc3c(n2)N(C)C(=O)N(c2cc(NC(=O)c4cccc(C(F)(F)F)c4)ccc2C)C3)cn1`, the nucleolar normality score was active: 0.618 (1 µM) and active: 0.589 (10 µM).

Regarding `COc1c(C)c2c(c(O)c1C/C=C(\C)CCC(=O)O)C(=O)OC2` [Mycophenolic acid], the nucleolar normality score reads like this: (1 µM) inactive: 1.07; (10 µM) inactive: 0.928.

In the case of `O.O=C([O-])c1ncccc1O.O=C([O-])c1ncccc1[O-].[H+].[O]=[V][OH]` [VO-Ohpic trihydrate], the nucleolar normality score reads like this: (1 µM) inactive: 0.989; (10 µM) inactive: 0.949.

As to `O=C(c1ccc(/C=C/c2n[nH]c3ccccc23)cc1)N1CCNCC1`, the nucleolar normality score (1 µM) is inactive: 0.974 and the nucleolar normality score (10 µM) was inactive: 1.07.

Turning to `C/C(=C\C(=O)Nc1ccccc1C(=O)O)c1ccc2ccccc2c1`, the nucleolar normality score reads like this: (1 µM) inactive: 0.982; (10 µM) inactive: 1.02.

For the compound `Cc1cc(Cl)ccc1OCCCC(=O)NO` [Droxinostat], the nucleolar normality score reads like this: (1 µM) inactive: 1.02; (10 µM) inactive: 1.06.

Take `NS(=O)(=O)OC[C@@H]1C[C@@H](n2ccc3c(N[C@H]4CCc5ccccc54)ncnc32)C[C@@H]1O` [Pevonedistat (MLN4924)]: the nucleolar normality score (1 µM) is inactive: 1.03 and the nucleolar normality score (10 µM) is inactive: 1.05.

As to `C[C@H](CC[C@@]1(O)O[C@H]2C[C@H]3[C@@H]4CC=C5C[C@@H](O[C@@H]6O[C@H](CO)[C@@H](O[C@@H]7O[C@@H](C)[C@H](O)[C@@H](O)[C@H]7O)[C@H](O)[C@H]6O[C@@H]6O[C@@H](C)[C@H](O)[C@@H](O)[C@H]6O)CC[C@]5(C)[C@H]4CC[C@]3(C)[C@H]2[C@@H]1C)CO[C@@H]1O[C@H](CO)[C@@H](O)[C@H](O)[C@H]1O` [Protodioscin], the nucleolar normality score (1 µM) is inactive: 1.07 and the nucleolar normality score (10 µM) was inactive: 0.941.

For the compound `CN(C)CCOc1ccc(-c2nc(-c3ccncc3)c(-c3ccc4c(c3)CC/C4=N\O)[nH]2)cc1`, the nucleolar normality score reads like this: (1 µM) inactive: 1.05; (10 µM) inactive: 0.853.

`O=C1Cc2c([nH]c3ccc(Br)cc23)-c2ccccc2N1` [Kenpaullone]: the nucleolar normality score runs as follows: (1 µM) inactive: 0.973; (10 µM) inactive: 1.02.

Consider `Cc1cc2c(C(N)=O)cccc2n1-c1nc2c(c(NCc3ccccc3)n1)COCC2`, for which the nucleolar normality score by setting is: (1 µM) inactive: 0.998; (10 µM) inactive: 0.935.

As to `COc1ccc2c(c1)c(CC(=O)N1CCOCC1)c(C)n2C(=O)c1ccc(Cl)cc1`, the nucleolar normality score (1 µM) was inactive: 1.04 and the nucleolar normality score (10 µM) is active: 0.838.

Turning to `Cc1cc2c3c([n+](C)c4ccc(F)cc4c3c1)-c1cc(F)ccc1N2C` [RHPS 4 methosulfate], the nucleolar normality score is, setting by setting: (1 µM) inactive: 1.01; (10 µM) inactive: 0.987.

As for `CCC(C)C1NC(=O)C(Cc2ccc(O)cc2)NC(=O)C(CC(C)C)NC(=O)C2CCCN2C(=O)CCSSCC(C(=O)NC(CCCN=C(N)N)C(=O)NC(CCCN=C(N)N)C(N)=O)NC(=O)C(C(C)C)NC(=O)C2CCCN2C(=O)C(CC(=O)O)NC(=O)C(Cc2ccc(O)cc2)NC(=O)C(CO)NC1=O` (centres undefined) ([Mpa]PLYISYDPVCRR-NH2; disulfide 1-11; configuration not given here), the nucleolar normality score is active: 0.678 (1 µM) and inactive: 1.08 (10 µM).

As for `N#Cc1ccc(COC[C@H]2O[C@@H](n3c(NCc4ccc(Cl)c(Cl)c4)nc4c(N)ncnc43)[C@H](O)[C@@H]2O)cc1`, the nucleolar normality score (1 µM) was inactive: 0.953 and the nucleolar normality score (10 µM) was inactive: 1.

For `CS(=O)(=O)c1ccc(-c2cnc(NCc3ccco3)n3cnnc23)cc1`, the nucleolar normality score runs as follows: (1 µM) inactive: 0.96; (10 µM) inactive: 0.962.

For `CCn1nc(C2CCN(C(=O)CCO)CC2)nc1-c1cnc(N)c(-c2nnc(C(C)(C)C)o2)n1`, the nucleolar normality score by setting is: (1 µM) inactive: 0.967; (10 µM) inactive: 1.08.

For `COc1cccc2cc(-c3nc([C@H]4CC[C@H](C(=O)O)CC4)n4ncnc(N)c34)[nH]c12`, the nucleolar normality score runs as follows: (1 µM) inactive: 0.99; (10 µM) active: 0.659.

On to `Cc1c(C)c2c(c(C)c1O)CCC(C)(C(=O)O)O2` (centres undefined) [Trolox], for which the nucleolar normality score runs as follows: (1 µM) inactive: 1.05; (10 µM) inactive: 1.04.

Consider `COc1cc(C2Oc3cc([C@H]4Oc5cc(O)cc(O)c5C(=O)[C@@H]4O)ccc3OC2CO)ccc1O` (some centres undefined) [Silibinin], for which the nucleolar normality score runs as follows: (1 µM) active: 0.832; (10 µM) active: 0.748.
